The labels stand for the following.
B1: CPEB3 Ribozyme (parent)
chain: UAACAGGGGGCCACAGCAGAAGCGUUCACGUCGCAGCCCCUGUCAGAUUCUGGUGAAUCUGCGAAUUCUGCUGUAUAUCUC

Read counts are not given, so values of variants with three or more changes are uncertain.

This series covers variants of B1. Description: self-cleavage, relative activity (ratio to wild type); higher = more cleavage; in vitro, sequencing. An outline of the steps: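 Barcoded CPEB3 ribozyme mutants, produced by rounds of error-prone PCR, self-cleaved while being transcribed with T7 RNA polymerase for 5 hours at 37°C and during a subsequent 15 min DNase I step before EDTA was added. Sequencing of template-switched cDNA on Illumina gave cleaved and total reads, and DNA sequencing assigned barcodes to variants. Each variant's relative activity is its cleaved/total read fraction divided by the unmutated ribozyme's fraction, averaged across three batches. A variant needed a minimum of 5 reads.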
Regarding G6U A47G G63U C71A, the self-cleavage came out at 0.08. G6A U51G U72A: the self-cleavage came out at 0. The result for G6U U25C A35G U48C U54A A56U G63C reads 0.07; that for G6U U48A U72C, 0.22. The result for G6C A18G U48C A65G U66G reads 0.53.

In the case of G6U A18G U66C, the self-cleavage came out at 0.34.

For G7A A28G U31G U49C G52A, the self-cleavage is 0.12. To G6U A21G G24A belongs 0.29; to G6U A57G U60C, 0.1. To G6U C11U U48C U54C belongs 0.23; to G7A A21G A47C A56U U72C U78C, 0.12; to G6U A21G C34G, 0.4. G6U A28G G52U A57G A65G: the self-cleavage came to 0.04. Take G7A A15C U51A G55A A57G A64G: the self-cleavage was 0.13. Regarding G6C G19A U51A U54G, the self-cleavage worked out at 0.06. The result for G6U A20U U69C U80C reads 0.37. The result for G7A A15G A21G reads 0.33; that for G6U A15U U26A, 0.09; that for G7A A77G U80G, 0.04. As for G7A A20G C50G U58C U67C U69A, the self-cleavage was determined as 0.08. On to G6U C37U A45G, for which the self-cleavage was determined as 0.33. The result for G6U A21G U31C U78C reads 0.2; that for G7A A20U A56U, 0.18; that for G6U A20G U26A A45C A56G U69A U72G, 0.05. The result for G7A A13U A47G reads 0.21; that for G6C U41C A47G U67C U80A, 0.09.

As to G7A C11U G16C G22C A28U U41A U54A, the self-cleavage is 0.06.

In the case of G7A A28U A35G C62U U74A, the self-cleavage is 0.05. The result for G6U A20G A21U A28G C39U C62U reads 0.06; that for G6U A35G U54A U80C, 0.63; that for G7A A28U A45G A56G, 0.06. For G7A A18G A35G A65G, the self-cleavage stood at 0.06.

Consider G6U A35G A47G U49G, for which the self-cleavage was found to be 0.26. The result for G6C G8U A35U U54A A56U A64G reads 0.05; that for G6U U26C C29U A45G U60A, 0.19. Consider G7A A45G U48A U78C, for which the self-cleavage was 0.03. The result for G7A A18U A28G C40U U41G A57G reads 0.04. For the variant G6U U60A U72C, the self-cleavage stood at 0.22. With G6C A13U U76C, the self-cleavage turned out to be 0.44. To G7A A35G U49C U74C A75U A77U belongs 0.08; to G7A A20G U67A U69A U80C, 0.06; to G6U C32U A64U U78C, 0.06. The result for G6U A21G U25C U26C U72C reads 0.09.

As for G6U A21G C29G A56U, the self-cleavage turned out to be 0.14. To G6U U66C U74C A77G belongs 0.08.

With G6U U41C A47G A65G, the self-cleavage stood at 0.23.

Regarding G7A A18G U49C A64G U67C, the self-cleavage came to 0. To G7A A20G A56U U58G C79U belongs 0.09. To G6U A28G A45G A56C U58A U69C G73A belongs 0.02; to G6C U31C A47G, 0.35; to G6U C14U U26A A64G U76C, 0.09. The result for G7A A21G A28G G33U A45C U54C reads 0.04; that for G7A A13U U25C A64G, 0.05; that for G6C G22A U31A U60C U78G, 0.04. In the case of G7A A18U U43C C81U, the self-cleavage was determined as 0.05. The result for G7A A28U C38U A47G reads 0.07; that for G6U G16C U72A U74C, 0.66. The result for G6A U54A G55U U66C reads 0.16. The result for G6U A28G A35G reads 0.27. In the case of G6C A20G A35G U41C U66C U72A, the self-cleavage was 0.17. To G6U G9A G16C C23U U26A A56C U74C belongs 0.04. The result for G6U A15U U41A reads 0.3. To G6A U58C U80C belongs 0.33. For G6U U31A A45U U54C U69A U78C, the self-cleavage amounted to 0.04.

In the case of G6U A20G G30A U31C U72G, the self-cleavage stood at 0.05. On to G6C U49C U72G, for which the self-cleavage was determined as 0.27. To G7A A13U A45G A65G U76C U78C belongs 0.05.

For G7A A13U U48C A56C U60A, the self-cleavage worked out at 0.04. To G6U G42A U54C A77G belongs 0.07; to G6C G9U U25A U31C C40U U66C, 0.04. For G7A A20G U26G A45G G53U U67C, the self-cleavage came out at 0.04.

Turning to G6U A18G A35G A45U U60C U80C, the self-cleavage was 0.08. To G7A A28G U67C belongs 0.07; to G7A A18G U25C A65G U67A A75U, 0.09.

Take G6U A13U A18G U49A: the self-cleavage turned out to be 0.33.

Regarding G6C U26C A64G, the self-cleavage came out at 0.07.

Turning to G7A A13U A15G U25C A57G U74A U78C, the self-cleavage amounted to 0.29. To G6U A13U A18G A64G belongs 0.29; to G7A A20G A45U U49A, 0.06; to G6U U41A A65G, 0.23.

Consider G6U A15G U54C A57G U58A A65G, for which the self-cleavage stood at 0.7. The result for G6C A57C A65U reads 0.28; that for G6C A20U U26C A56G, 0.04; that for G6U A18G A35C U41C U60A, 0.33. The result for G7A C11U U43A U51C reads 0.3; that for G7A A20G U48C U78C, 0.23. The result for G7A A13U U31G reads 0.22; that for G6U A28U U54A C68A U76A U80C, 0.05. In the case of G7A A13G A15G U41A A57G, the self-cleavage was found to be 0.19. For G6U A45G A47G U66C, the self-cleavage worked out at 0.09. To G6U A21G C44U A57G belongs 0.15. To G7A A35U C40A A45G A56G G63U belongs 0.04; to G7A A18U U25C U58C, 0.16; to G7A A13U A15G C23G U80C, 0.09. The result for G7A A21U G63A U69A reads 0.06; that for G7A A15G G53U, 0.35.

In the case of G7A C11G G52A U54C G61A U72C, the self-cleavage worked out at 0.1. The result for G6A U67C U76C reads 0.17; that for G6U A21U U25C U58G, 0.05. Take G6U U26C C29U A45G A47C U48C: the self-cleavage stood at 0.16. G6U A35C A65G U78C: the self-cleavage was determined as 0.06. On to G6U U51A A65U C81U, for which the self-cleavage was determined as 0.39. The result for G6U G33U A47G A57G C62G reads 0.06; that for G6U G24A U41G, 0.5; that for G6U A13U A28G, 0.12. The result for G6U U25A U72C reads 0.25. The result for G7A A57G U58C U72C reads 0.4; that for G6U C23U U43A, 0.24; that for G6C A28G U31A U41G U67C U80C, 0.06. On to G6C A21G A45G U51C U60C, for which the self-cleavage was determined as 0.

With G6U C11A A15U G30A U51C A56G A77U, the self-cleavage worked out at 0.03. The result for G6C A13U A35U U76C reads 0.31; that for G6U C12U A45U U54A A77G, 0.05.

Turning to G6U U51C U80G, the self-cleavage was 0.53. To G6A U54A U76C U78C belongs 0.34; to G7A A15C A20G A21G C32U G46U U76A, 0.06; to G6C A13G U41C U67C, 0.22. The result for G7A A45G U60C A75U reads 0.13; that for G6U A20G C23G A28G U58A U69G A77G, 0.02. To G6U A15G A18U U25C A47G belongs 0.04; to G7A A20G U51A A64U U78A, 0.22. In the case of G6U U43C A57G G73C, the self-cleavage came out at 0.34. For G6U A56G U76C A77G, the self-cleavage was found to be 0.17.

Take G7A A18G A20G C29A U31C A35U U41A: the self-cleavage amounted to 0.04. In the case of G7A A15C U25C A35U A45U A57C U69A, the self-cleavage was found to be 0.04. To G6U U74C A75G belongs 0.35; to G6C U43C A56G A64G U69A G73U, 0.15; to G7A A20G U48C A65G U69A G70C U80C, 0.02. The result for G6U U31A A47G U49A A57G reads 0.05. To G6U U26C U43C A45G U58C U60C U72G belongs 0. For the variant G7A A18G A21G C40A U54C U66C, the self-cleavage amounted to 0.04. The result for G6C U31C A35G U72A A77U U78A reads 0.04. To G6C U43G U58C A64U U69G U74C belongs 0.06; to G6U A15G A18U A28C U80C, 0.07. To G6U A64G U67A U72C belongs 0.08. Consider G6A U58C G63U U72C A75U U80C, for which the self-cleavage is 0.06. Consider G6U U43C G52C U54A A56G U60A A75G, for which the self-cleavage came to 0. Take G6U G16C U51A U69A U76A: the self-cleavage came out at 0.08.

In the case of G6U A21G U26C, the self-cleavage was 0.2. The result for G7A A18G U49A U54C U60A reads 0.05; that for G6C G9U A64U U80C, 0.36. To G6U A28G C38U U67A belongs 0.06; to G7A A21G U25C, 0.28. In the case of G6C G22U U51A, the self-cleavage is 0.38. To G7A A20G U25A U72C G73U U74A belongs 0.06; to G6C U25C A35U U60C, 0.27; to G6C A13U C44U U60A G70A U72C A77U, 0.03. To G7A A13C U26C belongs 0.09; to G7A A13G A28U U41A G42C A65G U66C, 0.05.

Turning to G6C A20G A35G U78C, the self-cleavage came out at 0.26.

As for G6C A28G U31A C37A, the self-cleavage turned out to be 0.07. The result for G7A A20U A35U U43C A56G U74C reads 0.06; that for G6U A21G A35G A45U A64U U66C, 0.19; that for G6U A56G A65G A75G A77U, 0.08. The result for G6A U51A U67C U80C reads 0.16. The result for G7A A21U G33A A35G U80C reads 0.19; that for G7A A28G U49A U80C, 0.15.

As to G6C A45G A57G C62U A65G, the self-cleavage is 0.15.

On to G6U A18C A21U U51A A64G, for which the self-cleavage is 0.05. Take G6U A20G C29U U41C C68A: the self-cleavage amounted to 0.25.

Take G6U A20G G24A A47U G52A A77U: the self-cleavage is 0.05. Consider G6U A15U G63A, for which the self-cleavage turned out to be 0.12.

In the case of G6C A18G U80C, the self-cleavage was 0.49. For the variant G7A A20G A47G A64G, the self-cleavage came out at 0.06. The result for G6A U54A U74A reads 0.63. The result for G6U U26C A28G G33U U48C U72A reads 0.06; that for G7A A18U A35G U67C G70A U74G, 0.04.

Values taken from the RNAGym collection of RNA variant scans (doi:10.1093/nar/gkz1192).
